{"source": "PubChem BioAssay AID624296", "about": "(National Center for Advancing Translational Sciences (NCATS), 2012)", "note": "The campaign covered roughly 350,000 compounds. About 9,900 (2.8%) were called active. Inconclusive means that the source gave no clear call. Such entries were picked first, then a sample of the others. Calls come from the whole dose curve; as a rule, active = well fitted activation curve with a large enough effect; inconclusive = small, poorly fitted or top-dose-only effect; inactive = no such curve, though single readings can be large or run the other way. No potency is given beside an inconclusive call; the fits are too rough."}
{"assay": "A quantitative high throughput screen for small molecules that induce DNA re-replication in MCF 10a normal breast cells; note: nearly all actives have a fitted effect of over 50% in size; note: potency is the fitted concentration of half-maximal effect; tags give direction and shape of the fitted curve.", "conditions": "MCF 10A DNA re-replication, Hoechst nuclear intensity, 48 h; series mostly up to 46.1 µM"}
{"compound": "Cc1sc2nc3c(SC(C)C(=O)O)cc(C(=O)c4ccccc4O)cn3c(=O)c2c1C", "note": "(centres undefined)", "Potency": "active: 16.4 µM"}
{"compound": "O=C(c1cc(F)c(F)cc1Cl)N1CCCc2ccccc21", "Potency": "inconclusive [activator, partial curve, poor fit]"}
{"compound": "CC1CCCC(C)N1C(=O)COC(=O)c1ccc2ccccc2n1", "note": "(centres undefined)", "Potency": "inactive"}
{"compound": "CCCC1CC(CSC(=N)N)OC1=O", "note": "(centres undefined)", "Potency": "inactive"}
{"compound": "OCCN1CCN(C2Cc3cc(Cl)ccc3Sc3ccc(Cl)cc32)CC1", "note": "(centres undefined) (tested in a mixture with another compound)", "Potency": "inconclusive [activator, single point]"}
{"compound": "O=C(Nc1ccc(Cl)c(S(=O)(=O)N2CCCCC2)c1)c1ccncc1", "Potency": "inactive"}
{"compound": "COc1cc(N2CCCC2)c(OC)cc1/C=C(/C#N)c1ccc(F)cc1", "Potency": "inconclusive [activator, full curve]"}
{"compound": "Cc1ccc(S(=O)(=O)N2CCN(C(=O)c3ccc(Cl)nc3)CC2)cc1", "Potency": "inconclusive [activator, partial curve, poor fit]"}
{"compound": "COc1ccc2cc3[n+](cc2c1OC)CCc1cc2c(cc1-3)OCO2", "Potency": "inactive"}
{"compound": "CC(=O)N1CCc2cc(S(=O)(=O)CCC(=O)NCc3ccc(C)o3)ccc21", "Potency": "inconclusive [activator, partial curve, poor fit]"}
{"compound": "CCCCOc1ccc(-c2cc(C(F)(F)F)c(C#N)c(SCC(=O)O)n2)cc1", "Potency": "inactive"}
{"compound": "CCOC(=O)c1c(NC(C)=O)sc2c(OC)c(Br)ccc12", "Potency": "inconclusive [activator, single point]"}
{"compound": "CCCCn1c(=O)[nH]c(=O)c2c(C(=O)OCC)cc(-c3cccs3)nc21", "Potency": "inconclusive [activator, partial curve, poor fit]"}
{"compound": "COc1ccccc1/C=N/N1CCN(c2ccc(Cl)cc2)CC1", "Potency": "inactive"}
{"compound": "CC(C)C(OC(=O)c1cccs1)C(=O)NCc1ccc2c(c1)OCO2", "note": "(centres undefined)", "Potency": "inconclusive [activator, partial curve, poor fit]"}
{"compound": "CCc1ccc2nc(N(CCCN(C)C)C(=O)c3ccc(S(=O)(=O)N4CCc5ccccc5C4)cc3)sc2c1", "Potency": "inconclusive [activator, single point]"}
{"compound": "CCc1ccc(-n2c(SCC(=O)N3CCC(C(=O)O)CC3)nnc2-c2ccncc2)cc1", "Potency": "inactive"}
{"compound": "S=C(N/N=C/c1ccc2ncccc2c1)Nc1cccnc1", "Potency": "inactive"}
{"compound": "COC(=O)C(=Cc1ccccc1[N+](=O)[O-])C(=O)OC", "Potency": "active: 23.1 µM"}
{"compound": "Cc1c(Cl)cccc1N/C(SCC(=O)N1CCCCCC1)=C(/C#N)c1nc2ccccc2s1", "Potency": "inconclusive [activator, full curve, poor fit]"}
{"compound": "COc1ccccc1NS(=O)(=O)c1cccc(-n2c(O)c(C=Nc3ccccc3C(=O)O)c3ccccc3c2=O)c1", "Potency": "inactive"}
{"compound": "Cc1ccc(S(=O)(=O)NCCC(=O)NC2CCCCC2)cc1", "Potency": "inconclusive [activator, single point]"}
{"compound": "C[C@H](CO)N1C[C@H](C)[C@@H](CN(C)S(C)(=O)=O)Oc2c(NC(=O)Cc3ccccc3)cccc2C1=O", "Potency": "inactive"}
{"compound": "N#CC(c1ccccc1)c1ccc2c(C(F)(F)F)cc(C(F)(F)F)nc2n1", "note": "(centres undefined)", "Potency": "inconclusive [activator, full curve]"}
{"compound": "CCCCCCCCCCOCC(O)CN", "note": "(centres undefined)", "Potency": "inconclusive [activator, single point]"}
{"compound": "CCN(CC)S(=O)(=O)c1cc(NC(=O)Cc2ccsc2)ccc1C", "Potency": "inconclusive [activator, single point]"}
{"compound": "CN(C)CCNC(=O)C(=O)Nc1cc2c3c(c1)CCC(=O)N3CCC2", "Potency": "inactive"}
{"compound": "CCN(CC)CCOC(=O)c1ccc(NC(=O)CCCN2C(=O)/C(=C\\c3cccs3)SC2=S)cc1", "Potency": "inconclusive [activator, single point]"}
{"compound": "O=C(CCN1C(=O)/C(=C/c2ccc3c(c2)OCO3)SC1=S)NNC(=O)c1cccnc1", "Potency": "inconclusive [activator, partial curve, poor fit]"}
{"compound": "CCCn1c(SCC(=O)Nc2cc(Cl)ccc2Cl)n[nH]c1=O", "Potency": "inconclusive [activator, single point]"}
{"compound": "O=C(Nc1ccc2c(c1)OCCO2)c1c(F)c(F)c(F)c(F)c1F", "Potency": "inconclusive [activator, partial curve, poor fit]"}
{"compound": "CCOC(=O)C1=C(C)N(CCC(=O)O)C(=O)NC1c1ccccc1Cl", "note": "(centres undefined)", "Potency": "inconclusive [activator, single point]"}
{"compound": "Cc1noc(NS(=O)(=O)c2ccc(N/C=C\\C(=O)c3ccccc3)cc2)c1C", "Potency": "inconclusive [activator, partial curve, poor fit]"}
{"compound": "CC(C)(C)C(=O)NC(=S)Nc1ccccc1C(=O)Nc1ccccc1", "Potency": "inconclusive [activator, partial curve, poor fit]"}
{"compound": "COc1ccc(CCC(=O)N2c3ccccc3CC2C)cc1", "note": "(centres undefined)", "Potency": "inconclusive [activator, single point]"}
{"compound": "C/C(=N\\NC(=O)c1ccc(C)cc1)c1c(C)[nH]n(-c2ccccc2)c1=O", "Potency": "inactive"}
{"compound": "CN(C)S(=O)(=O)c1ccc(F)c(C(=O)Nc2ccccc2C(=O)NC2CC2)c1", "Potency": "inactive"}
{"compound": "CCn1c(=O)c(C(=O)CN(C)Cc2cccc(OC)c2OC)c(N)n(Cc2ccccc2)c1=O", "Potency": "inactive"}
{"compound": "O=C(Cn1nc2ccccc2n1)N/N=C/c1cc([N+](=O)[O-])ccc1O", "Potency": "inconclusive [activator, partial curve, poor fit]"}
{"compound": "COC(=O)c1c(-c2ccc3ccccc3c2)csc1NC(=O)Cc1ccc(OC)c(OC)c1", "Potency": "inconclusive [activator, partial curve]"}
{"compound": "Cc1c(CC(=O)NCCCCCC(=O)O)c(=O)oc2cc3c(cc12)CCC(C)(C)O3", "Potency": "inconclusive [activator, single point]"}
{"compound": "CSc1ccccc1C(=O)NC1CCCCC1", "Potency": "inactive"}
{"compound": "N#Cc1ncc(-c2ccc3c(c2)OCCOCCOCCOCCO3)nc1C#N", "Potency": "active: 18.4 µM"}
{"compound": "O=C(NCCC1CCCCN1S(=O)(=O)c1cccs1)C(=O)Nc1ccccc1F", "note": "(centres undefined)", "Potency": "inconclusive [activator, partial curve]"}
